Test results: the supplement of paper PMC3334620
The full ranking holds about 33,000 sequences; the median of “E-score (-0.5 to 0.5)” is about -0.012, and the highest 2% start at about 0.27. This is one part of the list.

molecular target: T1, Vhr1 (UniProt P40522); experiment: PBM E-score (8-mer binding enrichment) (E-score (-0.5 to 0.5)); higher = stronger / more preferred TF binding; most listed sequences are background and not binding sites; conditions: protein concentration: 200 nM; construct: GST-full length
T1 sequence: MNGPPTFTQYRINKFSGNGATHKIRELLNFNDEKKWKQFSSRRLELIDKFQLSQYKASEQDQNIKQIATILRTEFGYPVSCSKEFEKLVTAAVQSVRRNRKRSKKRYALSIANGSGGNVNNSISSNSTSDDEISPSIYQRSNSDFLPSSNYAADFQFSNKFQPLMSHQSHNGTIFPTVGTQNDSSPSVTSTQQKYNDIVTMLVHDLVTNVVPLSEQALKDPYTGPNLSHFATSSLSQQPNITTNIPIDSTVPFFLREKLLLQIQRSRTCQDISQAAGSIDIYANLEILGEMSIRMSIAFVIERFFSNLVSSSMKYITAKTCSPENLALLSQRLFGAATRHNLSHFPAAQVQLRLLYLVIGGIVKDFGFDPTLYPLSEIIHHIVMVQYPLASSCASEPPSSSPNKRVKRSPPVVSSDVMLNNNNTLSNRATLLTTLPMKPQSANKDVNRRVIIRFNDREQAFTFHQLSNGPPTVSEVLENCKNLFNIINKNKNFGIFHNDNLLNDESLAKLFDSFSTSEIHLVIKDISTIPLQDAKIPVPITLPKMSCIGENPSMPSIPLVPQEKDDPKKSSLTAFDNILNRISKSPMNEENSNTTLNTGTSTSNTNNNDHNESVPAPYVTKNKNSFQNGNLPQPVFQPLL
Procedure, shortened: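 Detection of bound protein used fluorescent anti-GST, with scans normalised by masliner. The proteins were GST-tagged yeast transcription factors applied at about 100-200 nM to universal all-10-mer Agilent arrays made double-stranded by primer extension. Each ungapped eight-base word, pooled with its reverse complement, was scored with an E-score from the Universal PBM Analysis Suite.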

Sequence | PBM E-score
CGCGGCAA | -0.0486
GTACTTGA | -0.0469
CCTCGTAG | 0.0494
ACTACATG | 0.127
ATTTCATA | 0.0613
GCCCGGCA | -0.139
ATGACGCA | 0.126
CTCAACGA | -0.0668
ATGGGAGG | 0.156
CGTGGCAC | -0.0853
CAGAGTCC | 0.0441
CCCAGCTC | 0.0439
GAATCCTC | -0.0437
CCCTAGCC | -0.184
CTTTAGGC | -0.378
ACGTACAA | 0.0683
ATCGTCTC | 0.0308
ACTACTAC | 0.232
TGCATGCA | 0.026
AGCTCGTA | -0.0698
GCTTTCCC | -0.0139
CTTGTACC | 0.102
CGGGTGTA | -0.0398
TACAGCGA | -0.0721
AAATGGCT | -0.0733

Sequence | PBM E-score
ATTCAATG | 0.044
AAGGTTAC | -0.106
CGTTCGAC | -0.139
ACCGACTC | 0.34
AGAAATGA | -0.104
TACCAGAA | 0.12
ATGACCCC | 0.211
AAGGTCGG | 0.0367
AGCTTCTA | -0.278
AATAAGTG | -0.0302
ACACATCT | 0.147
CCCACTAA | 0.139
CTATTACC | -0.0152
ACGGGTAC | -0.0194
GGGCTGAC | 0.165
AAGTAGAG | -0.225
TAAAATGA | 0.108
CCAGTGGC | -0.0267
CGTTCCAG | -0.239
TACAGAGA | -0.0449
ATCTCGGC | -0.0265
GCCCATTA | -0.039
CAAAAAAC | -0.0255
GACAAACC | -0.171
ACAATAAG | 0.0477

Sequence | PBM E-score
GCAACTGC | -0.0177
CCAGAGAA | -0.00793
ACTTGGGG | -0.0619
AATGCCCA | -0.0815
CGCGGCCG | -0.0229
GTGCTTCA | 0.126
AATGTACG | -0.225
AAGACAAT | -0.0357
CCTTCTAC | -0.226
AGTATAGA | 0.189
ACAGTTCC | -0.00019
GGGAAGCA | -0.227
CGCCAGCC | 0.131
ACACTGGC | 0.175
CGGCGGAC | 0.175
ACGCCCCA | 0.112
CTTCTTGC | -0.138
CCAAGAGC | 0.128
ATAGGCTC | -0.0945
CCGAAACG | -0.218
CCGGGAGA | -0.0126
CCCCAGTA | -0.205
GTCTTAAC | -0.164
CAATTTAC | -0.137
GATATGCC | -0.0589

Sequence | PBM E-score
CGAGAACA | 0.0469
CCGTGGTC | 0.0319
GGAAGCCA | -0.00802
CCGCACCA | 0.105
CCGAGCAA | -0.0958
CAGATAGA | 0.0142
CGTAGTGC | -0.0516
GACGACTA | 0.162
ACACTATC | 0.151
TCACACCA | 0.17
CCTCTCCA | -0.234
CAGAATGC | -0.176
AGCCGGTC | -0.0859
GATCCACA | -0.00035
AAATTCCG | -0.216
TGCCGGAA | -0.0716
GCTGTTTA | -0.00255
TAAACTAA | 0.0411
CGAAGAAA | -0.00244
AGTGATCC | 0.151
CGTCTTCA | 0.00489
ACGGGTGA | 0.117
GCCCACGC | -0.271
CATAATTC | 0.078
ACGAGTCA | 0.43

Sequence | PBM E-score
AAATGTAC | 0.0446
ATGCCGTC | -0.101
GCTTAATA | 0.0178
AAACGGGC | -0.0616
TCACTCAA | 0.0734
GCTTACCC | -0.243
ATATTTCG | -0.0136
AAGTATGC | -0.0799
ATTCGTTG | 0.0936
GATGGGAC | -0.0486
GATGTAAC | 0.0264
ATGGTCTG | 0.18
CATTCGAA | -0.0673
GAATGAAA | -0.0321
CTTATAAG | -0.0388
ACTAGATG | 0.0235
CGGTGTCA | 0.0444
TCCGACAA | -0.0624
CCTGCCAC | -0.0185
CTTTTCGC | -0.0263
TCAAAACA | 0.0993
AATTTGTC | -0.112
ATGCTCTA | -0.154
TATAAGAA | -0.237
CGGGTGAG | 0.164

Sequence | PBM E-score
CAACTCCG | -0.0132
AGCTAAGC | -0.0385
ATCCGCAA | -0.149
AACGTAGA | 0.0194
CTCTTGCC | -0.198
AACACTCC | -0.0208
AAAGCTCC | -0.0676
AACGGGTG | 0.0256
ACCCGCTG | -0.0412
CCCCGGCG | 0.199
CTCCGACC | 0.159
CGATGGTC | -0.00779
CAGCAACA | 0.14
ATCAATCG | 0.0912
AGGCACCC | -0.152
CCGGGCAC | -0.0406
GAAGTCAC | 0.269
CTCTCAAG | -0.14
ATTGTGCA | 0.146
ATCGACTG | 0.0924
TATTTACA | 0.0242
CTCCCCCC | -0.0954
AGCTCTTC | -0.0932
ATTCGGAG | -0.00066
CCTTGTAG | -0.122

Sequence | PBM E-score
CATAATGA | 0.175
GGGCCCGA | 0.0795
CCTGCTTC | -0.226
CATATGCA | 0.148
GGAAGGCC | -0.245
GTGCAAAC | -0.0932
ACCCAAAG | -0.174
GTGTAGCA | -0.00447
CGGGAGCC | 0.0751
CCTGTCCG | 0.00199
AAGGCAGC | -0.132
ACATATTG | 0.129
CACCCGGG | 0.0553
CCAGAAAG | -0.162
CGTCAACA | -0.0112
AGCTTAGA | -0.098
AGGTGATA | 0.0194
CAAGAGTG | -0.185
TACGAAGA | -0.0938
AGCTTACT | -0.0121
GGTGTTTA | 0.0565
CCGAGAGG | -0.177
